# Data published in PubChem BioAssay (NCATS).
# Several values for one entry are separate records, joined by “and”; a condition that tells them apart may be missing. Identical values can stand only once. The inconclusive results got no clear call from the source; some entries with a clear call stand among them for comparison. For part of these data: Potencies beside an inconclusive call are fits to weak or partial responses and may not hold up. Activity calls are given as the source filed them. Unless noted, calls follow the shape of the dose curve; as a rule, active = well fitted curve in the direction sought with a large enough effect; inconclusive = small, poorly fitted or top-dose-only effect, or another doubt; inactive = no such curve, though single readings can be large; an effect the other way counts as inactive or inconclusive.
# Columns and labels:
# [1] = molecular target: Glutathione peroxidase 1 (Homo sapiens) (UniProt P07203); assay: Primary qHTS Assay for Inhibitors of Recombinant Selenoprotein Glutathione Peroxidase 1 (GPX1) (AID 1845191); settings: recombinant GPX1, GR-coupled NADPH fluorescence, 15 min; series mostly up to 48.8 µM; also: potency is read from the fitted curve at half-maximal effect; nearly all actives have a fitted effect of over 65% in size
# Chain of UniProt P07203 (P07203 whole entry, looked up): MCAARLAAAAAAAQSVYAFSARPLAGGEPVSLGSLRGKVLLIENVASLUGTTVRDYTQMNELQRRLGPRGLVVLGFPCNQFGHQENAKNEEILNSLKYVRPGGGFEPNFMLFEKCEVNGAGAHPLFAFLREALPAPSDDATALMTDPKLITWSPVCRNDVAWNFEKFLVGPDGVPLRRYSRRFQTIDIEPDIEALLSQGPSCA
# In short: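 NADPH consumption tracked by fluorescence at 340/450 nm between t=0 and t=15 min, room temperature. Final mix: 10 nM GPX1, 100 nM glutathione reductase, 1 mM GSH, 0.5 mM NADPH, 0.5 mM cumene hydroperoxide, 0.01% BSA; 30 min compound–enzyme preincubation.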
# [2] = molecular target: Phospholipid hydroperoxide glutathione peroxidase GPX4 (Homo sapiens) (UniProt P36969); assay: Primary qHTS Assay for Inhibitors of Recombinant Selenoprotein Glutathione Peroxidase 4 (GPX4) (AID 1845192); settings: recombinant GPX4, GR-coupled NADPH fluorescence, 15 min; series mostly up to 50 µM; also: nearly all actives have a fitted effect of over 65% in size; also: potency is read from the fitted curve at half-maximal effect
# Chain of UniProt P36969 (P36969 whole entry, looked up): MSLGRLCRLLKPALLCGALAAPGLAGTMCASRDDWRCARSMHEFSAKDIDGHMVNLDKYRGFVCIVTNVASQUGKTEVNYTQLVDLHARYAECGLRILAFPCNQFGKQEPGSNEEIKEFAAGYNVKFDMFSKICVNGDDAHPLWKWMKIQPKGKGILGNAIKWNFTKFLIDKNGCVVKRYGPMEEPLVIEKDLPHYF
# In short: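 NADPH consumption followed by fluorescence at 340/450 nm, t=0 and after 15 min at room temperature. Reaction started with cumene hydroperoxide (0.5 mM final) after 30 min compound–GPX4 preincubation; final 200 nM GPX4, 100 nM GR, 1 mM GSH, 0.5 mM NADPH.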
# [3] = Primary fluorescence-based thiol-reactive (MSTI) qHTS assay for identification of artifact compounds. (AID 1845221); settings: MSTI thiol-reactivity probe, 1 h; series mostly up to 53.8 µM; also: potency is read from the fitted curve at half-maximal effect;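 also: thiol-reactive compounds lower the probe fluorescence signal; nearly all actives have a fitted effect of over 65% in size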
# In short: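 Thiol-reactive compounds detected by quenching of 4 uM MSTI fluorescence (525/598 nm) after 1 h room-temperature dark incubation in PBS pH 7.4, 2% DMSO. qHTS titration; percent inhibition Hill-fitted against Acetyl-MSTI/MSTI controls.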
# [4] = system: Zika virus NS2B-NS3 protease (unlinked complex); assay: Primary screen GU Rhodamine qHTS for Zika virus inhibitors: Unlinked NS2B-NS3 protease assay (AID 1347159); settings: Recombinant ZIKV NS2B-NS3 protease, Rhodamine110 substrate fluorescence; series mostly up to 107 µM; also: nearly all actives have a fitted effect of over 60% in size; also: potency is read from the fitted curve at half-maximal effect
# In short: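 Unlinked NS2B/NS3, 25 nM; Rhod110 peptide, 1.5 microM; compounds, up to 114 microM. Reaction run 15 min at RT in 10 mM Tris-HCl pH 8.0, 0.01% Tween 20; kinetic fluorescence change fitted with a 4-parameter Hill model.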
# [5] = qHTS of pediatric cancer cell lines to identify multiple opportunities for drug repurposing: Primary screen for DAOY cells (AID 1347090); settings: DAOY medulloblastoma viability, CellTiter-Glo luminescence, 48 h; activity change, negative = cytotoxic: at 46 µM (top of the series); also: potency is read from the fitted curve at half-maximal effect; nearly all actives have a fitted effect of over 55% in size
# In short: (§1)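 Cell viability, CellTiter-Glo luminescence; 500-1,000 cells/well, 8- or 11-point titration, 48 h compound exposure at 37 degrees C, 5% CO2. Controls: DMSO neutral, bortezomib 2.3 µM final as positive.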
# [6] = qHTS of pediatric cancer cell lines to identify multiple opportunities for drug repurposing: Primary screen for SJ-GBM2 cells (AID 1347091); settings: SJ-GBM2 viability, CellTiter-Glo luminescence, 48 h; series mostly up to 46 µM; also: potency is read from the fitted curve at half-maximal effect
# In short: as §1
# [7] = qHTS of pediatric cancer cell lines to identify multiple opportunities for drug repurposing: Primary screen for U-2 OS cells (AID 1347096); settings: U-2 OS viability, CellTiter-Glo luminescence, 48 h; series mostly up to 46 µM; also: potency is read from the fitted curve at half-maximal effect; nearly all actives have a fitted effect of over 50% in size
# In short: (§2)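 Cells (500-1,000/well) rested 5 h, then received compounds for 48 h; metabolically active cells were measured by CellTiter-Glo luminescence. Final concentrations spanned up to 46 µM (MIPE, 11-point) or 0.59 nM-46 µM (NPC, 8-point) in primary screens, 11-point in follow-ups.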
# [8] = qHTS of pediatric cancer cell lines to identify multiple opportunities for drug repurposing: Primary screen for SK-N-SH cells (AID 1347098); settings: SK-N-SH viability, CellTiter-Glo luminescence, 48 h; activity change, negative = cytotoxic: at 57 µM (top of the series); also: potency is read from the fitted curve at half-maximal effect; nearly all actives have a fitted effect of over 65% in size
# In short: as §2
# [9] = qHTS of pediatric cancer cell lines to identify multiple opportunities for drug repurposing: Primary screen for Rh18 cells (AID 1347102); settings: Rh18 rhabdomyosarcoma viability, CellTiter-Glo luminescence, 48 h; series mostly up to 46 µM
# In short: as §2
# [10] = qHTS of pediatric cancer cell lines to identify multiple opportunities for drug repurposing: Primary screen for Rh30 cells (AID 1347107); settings: Rh30 rhabdomyosarcoma viability, CellTiter-Glo luminescence, 48 h; series mostly up to 46 µM; also: nearly all actives have a fitted effect of over 75% in size; also: potency is read from the fitted curve at half-maximal effect
# In short: as §2
# [11] = qHTS of pediatric cancer cell lines to identify multiple opportunities for drug repurposing: Primary screen for Rh41 cells (AID 1347108); settings: Rh41 rhabdomyosarcoma viability, CellTiter-Glo luminescence, 48 h; series mostly up to 46 µM; also: potency is read from the fitted curve at half-maximal effect; nearly all actives have a fitted effect of over 70% in size
# In short: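 500-1,000 cells/well; 5 h pre-incubation 37 °C/5% CO2; compound pinned; 48 h; CellTiter-Glo, 15 min RT; luminescence. MIPE 11-pt from 0.78 nM, NPC 8-pt from 0.59 nM final. Bortezomib 2.3 µM final as positive control.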
# [12] = molecular target: Cytochrome P450 2D6 (Homo sapiens) (UniProt P10635); assay: Cytochrome P450 family 2 subfamily D member 6 (CYP2D6) small molecule antagonists: luciferase biochemical (cell-free) qHTS assay (AID 1645840; active = well fitted curve in the direction sought with a large enough effect in the repeat runs; inconclusive = weak or mixed curves; inactive = no such curve, though single readings can be large; an effect the other way counts as inactive or inconclusive; also: nearly all actives have a fitted effect of over 55% in size; also: potency is read from the fitted curve at half-maximal effect); settings: P450-Glo CYP2D6 enzyme, luciferin luminescence, 1 h; series mostly up to 57.4 µM
# Chain of UniProt P10635 (P10635 whole entry, looked up): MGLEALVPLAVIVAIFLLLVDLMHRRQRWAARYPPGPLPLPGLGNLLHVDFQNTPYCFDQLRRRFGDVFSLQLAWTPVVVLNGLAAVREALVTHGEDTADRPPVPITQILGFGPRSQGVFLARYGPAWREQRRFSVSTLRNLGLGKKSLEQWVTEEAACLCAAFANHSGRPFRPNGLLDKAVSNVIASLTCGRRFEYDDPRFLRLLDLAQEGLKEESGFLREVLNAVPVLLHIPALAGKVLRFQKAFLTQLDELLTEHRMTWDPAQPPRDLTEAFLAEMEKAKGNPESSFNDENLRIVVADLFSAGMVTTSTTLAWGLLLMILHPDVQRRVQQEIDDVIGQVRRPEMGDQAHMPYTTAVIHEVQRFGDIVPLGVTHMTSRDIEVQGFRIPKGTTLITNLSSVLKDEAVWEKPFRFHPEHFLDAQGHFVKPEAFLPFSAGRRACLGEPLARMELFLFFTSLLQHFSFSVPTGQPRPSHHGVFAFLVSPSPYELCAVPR
# In short: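 P450-Glo CYP2D6 system: proluciferin substrate converted by enzyme to luciferin, read by luminescence proportional to activity. Enzyme-substrate mix with compound 10 min at room temperature, then NADPH regeneration 1 h before detection reagent.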
# UISO = assay: qHTS assay to identify novel small-molecules to repurpose for Merkel cell carcinoma treatment (AID 1296009); settings: MCC and control cell lines, CellTiter-Glo viability, 72 h; series mostly up to 46 µM; also: potency is read from the fitted curve at half-maximal effect; nearly all actives have a fitted effect of over 60% in size
# In short: (§3)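 Cell viability measured by CellTiter-Glo following 72 hr compound treatment at 37 degree celsius, with NPC and MIPE libraries tested in 8- and 11-point concentration series.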
# WaGa = assay: as above; settings: MCC and control cell lines, CellTiter-Glo viability, 72 h; series mostly up to 46 µM
# In short: as §3
# [13] = Primary redox qHTS assay for identification of artifact compounds. (AID 1845223); settings: Amplex Red/HRP redox cycling with DTT, fluorescence; series mostly up to 53.8 µM
# In short: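 Redox-cycling detection via DTT (250 uM final) oxidation coupled to Amplex Red (25 uM)/HRP (250 mU/mL) in HBSS. 15 min preincubation plus 30 min after DTT, room temperature. Ex/Em 525/598 nm; 4-parameter Hill fit against DMSO and 10 uM DA3003.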
# [14] = qHTS of pediatric cancer cell lines to identify multiple opportunities for drug repurposing: Primary screen for OHS-50 cells (AID 1347103); settings: OHS-50 osteosarcoma viability, CellTiter-Glo luminescence, 48 h; series mostly up to 57.3 µM; also: potency is read from the fitted curve at half-maximal effect; nearly all actives have a fitted effect of over 40% in size
# In short: as §2
# [15] = molecular target: Cytochrome P450 2C9 (Homo sapiens) (UniProt P11712); assay: Cytochrome P450 family 2 subfamily C member 9 (CYP2C9) small molecule antagonists: luciferase biochemical (cell-free) qHTS assay (AID 1645842; active = well fitted curve in the direction sought with a large enough effect in the repeat runs; inconclusive = weak or mixed curves; inactive = no such curve, though single readings can be large; an effect the other way counts as inactive or inconclusive; also: potency is read from the fitted curve at half-maximal effect; nearly all actives have a fitted effect of over 55% in size); settings: P450-Glo CYP2C9 enzyme assay, luciferin luminescence; series mostly up to 57.4 µM
# Chain of UniProt P11712 (P11712 whole entry, looked up): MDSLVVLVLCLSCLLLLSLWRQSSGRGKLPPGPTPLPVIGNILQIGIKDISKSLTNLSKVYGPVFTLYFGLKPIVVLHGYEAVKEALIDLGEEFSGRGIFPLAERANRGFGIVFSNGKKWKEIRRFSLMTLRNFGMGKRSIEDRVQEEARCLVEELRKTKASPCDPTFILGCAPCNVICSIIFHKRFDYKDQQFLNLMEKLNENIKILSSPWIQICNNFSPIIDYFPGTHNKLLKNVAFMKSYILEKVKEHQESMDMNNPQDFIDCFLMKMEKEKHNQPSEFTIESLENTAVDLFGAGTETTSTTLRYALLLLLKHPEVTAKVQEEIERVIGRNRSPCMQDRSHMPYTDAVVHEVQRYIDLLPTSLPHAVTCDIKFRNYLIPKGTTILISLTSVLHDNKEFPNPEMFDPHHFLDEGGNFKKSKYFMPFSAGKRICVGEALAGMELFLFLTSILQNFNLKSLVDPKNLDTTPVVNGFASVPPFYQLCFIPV
# In short: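 P450-Glo CYP2C9 system: proluciferin substrate with enzyme in mix containing 0.4% BSA, 10 min at room temperature, then NADPH regeneration solution added and incubated 1 h at 37C. Detection reagent stopped reaction; luminescence read after 20 min as RLU.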
# [16] = qHTS of pediatric cancer cell lines to identify multiple opportunities for drug repurposing: Primary screen for LAN-5 cells (AID 1347100); settings: LAN-5 neuroblastoma viability, CellTiter-Glo luminescence, 48 h; series mostly up to 46 µM; also: potency is read from the fitted curve at half-maximal effect
# In short: as §2
# Tags tell the direction and shape of the fitted curve.
compound,measurement,setting,value
CS(=O)(=O)c1ccc(-c2nnc(/C=C/c3nnc(-c4ccc(C#N)cc4)o3)n2-c2ccccc2Cl)nc1,Potency,[1],"inconclusive: 16.3 µM [inhibitor, single point]"
same,Potency,[2],"inconclusive: 32.1 µM [inhibitor, single point]"
same,Potency,[3],inactive
Nc1ncnc2c1nc(Cl)n2C1OC2COP(=O)(O)OC2C1O (centres undefined),Potency,[4],"inconclusive: 89.1 µM [inhibitor, single point]"
O=C(N/N=C/c1ccccc1O)c1ccncc1,Potency,[5],active: 4.22 µM
same,Potency,[6],"inconclusive: 11.9 µM [cytotoxic, partial curve]"
same,Potency,[7],"inconclusive: 16.8 µM [cytotoxic, single point]"
same,Potency,[8],"inconclusive: 3.44 µM [cytotoxic, full curve]"
same,Potency,[9],"inconclusive: 16.8 µM [cytotoxic, single point]"
same,Potency,[10],"inconclusive: 15 µM [cytotoxic, partial curve]"
same,Potency,[11],"inconclusive: 5.31 µM [cytotoxic, full curve]"
same,Potency,[12],"inconclusive: 43.6 µM [inhibitor, partial curve, poor fit]"
same,Potency,UISO,active: 750 nM
same,Potency,WaGa,active: 2.66 µM
CCCc1cc2c(N3CCN(C4=NCC(C)(C)S4)CC3)ncnc2s1,Potency,[4],inactive
same,Potency,[13],inactive
C=C[C@@]1(C)CC(=O)[C@]2(O)[C@@]3(C)[C@@H](O)CCC(C)(C)[C@@H]3[C@H](O)[C@H](OC(C)=O)[C@@]2(C)O1,Potency,[14],"inconclusive: 11 µM [cytotoxic, partial curve]"
same,Potency,[10],inactive
same,Potency,[12],inactive
same,Potency,[15],"inconclusive: 43.6 µM [inhibitor, partial curve, poor fit] and inconclusive: 21.3 µM [inhibitor, single point]"
C=C1C(=O)O[C@@H]2[C@H]1CCC(C)=C1CCC(=O)O[C@]12C,Potency,[4],inactive
CC#C[C@@H](CC(=O)O)c1ccc(OCc2cccc(-c3ccc(C(F)(F)F)cc3)c2)cc1,Potency,[4],"inconclusive: 2.51 µM [inhibitor, full curve, poor fit]"
same,Potency,[12],inactive
same,Potency,[15],"inconclusive: 21.3 µM [inhibitor, single point]"
same,Potency,[2],active: 5.7 µM
O=C(c1ccccc1)c1ccc2nc(NC(=O)c3csc(C4CCN(c5ncnc6ccsc56)CC4)n3)[nH]c2c1,Potency,[4],"inconclusive: 25.1 µM [inhibitor, partial curve]"
N#Cc1ccc(-c2cnc3[nH]cc(NC(=O)c4cccnc4)c3c2)cc1,Potency,[1],"inconclusive: 28.6 µM [inhibitor, single point]"
same,Potency,[3],"inconclusive: 4.74 µM [inhibitor, full curve, poor fit]"
CC(C)(C(=O)NCC(F)(F)C(F)(F)F)C(=O)NC1C(=O)Nc2ccccc2-c2ccccc21 (centres undefined),Potency,[2],inactive
CCCCOc1ccc(CC(=O)NO)cc1,Potency,[5],"inconclusive: 16.8 µM [cytotoxic, partial curve, poor fit] and active: 11.8 µM"
same,Potency,[6],"inconclusive: 33.5 µM [cytotoxic, single point] and inconclusive: 23.5 µM [cytotoxic, partial curve]"
same,Potency,[7],"active: 26.6 µM and inconclusive: 14.8 µM [cytotoxic, partial curve, poor fit]"
same,Potency,[16],"inconclusive: 33.5 µM [cytotoxic, single point]"
same,Potency,[9],"inconclusive: 18.8 µM [cytotoxic, single point] and inconclusive: 16.6 µM [cytotoxic, partial curve]"
same,Potency,[14],"inconclusive: 8.71 µM [cytotoxic, full curve, poor fit] and inconclusive: 24.3 µM [cytotoxic, single point]"
same,Potency,[10],"inconclusive: 26.6 µM [cytotoxic, single point]"
same,Potency,[11],"inconclusive: 18.8 µM [cytotoxic, partial curve, poor fit] and inconclusive: 5.26 µM [cytotoxic, partial curve]"
same,Potency,UISO,"active: 16.8 µM and inconclusive: 29.6 µM [inhibitor, single point]"
same,Potency,WaGa,"inconclusive: 29.9 µM [inhibitor, single point] and inconclusive: 23.5 µM [inhibitor, single point]"
